# The whole screen tested about 310,000 compounds, of which about 2,200 (0.71%) showed an effect of 50% or more. The effect is printed as a negative number. The list shows a part of the results.
# Biological target: human ether-à-go-go-related gene (hERG) potassium channel (human, UniProt Q12809)
# Test: primary screen, population patch clamp on CHO cells stably expressing hERG
# Sequence of human ether-à-go-go-related gene (hERG) potassium channel (Q12809 whole entry, looked up): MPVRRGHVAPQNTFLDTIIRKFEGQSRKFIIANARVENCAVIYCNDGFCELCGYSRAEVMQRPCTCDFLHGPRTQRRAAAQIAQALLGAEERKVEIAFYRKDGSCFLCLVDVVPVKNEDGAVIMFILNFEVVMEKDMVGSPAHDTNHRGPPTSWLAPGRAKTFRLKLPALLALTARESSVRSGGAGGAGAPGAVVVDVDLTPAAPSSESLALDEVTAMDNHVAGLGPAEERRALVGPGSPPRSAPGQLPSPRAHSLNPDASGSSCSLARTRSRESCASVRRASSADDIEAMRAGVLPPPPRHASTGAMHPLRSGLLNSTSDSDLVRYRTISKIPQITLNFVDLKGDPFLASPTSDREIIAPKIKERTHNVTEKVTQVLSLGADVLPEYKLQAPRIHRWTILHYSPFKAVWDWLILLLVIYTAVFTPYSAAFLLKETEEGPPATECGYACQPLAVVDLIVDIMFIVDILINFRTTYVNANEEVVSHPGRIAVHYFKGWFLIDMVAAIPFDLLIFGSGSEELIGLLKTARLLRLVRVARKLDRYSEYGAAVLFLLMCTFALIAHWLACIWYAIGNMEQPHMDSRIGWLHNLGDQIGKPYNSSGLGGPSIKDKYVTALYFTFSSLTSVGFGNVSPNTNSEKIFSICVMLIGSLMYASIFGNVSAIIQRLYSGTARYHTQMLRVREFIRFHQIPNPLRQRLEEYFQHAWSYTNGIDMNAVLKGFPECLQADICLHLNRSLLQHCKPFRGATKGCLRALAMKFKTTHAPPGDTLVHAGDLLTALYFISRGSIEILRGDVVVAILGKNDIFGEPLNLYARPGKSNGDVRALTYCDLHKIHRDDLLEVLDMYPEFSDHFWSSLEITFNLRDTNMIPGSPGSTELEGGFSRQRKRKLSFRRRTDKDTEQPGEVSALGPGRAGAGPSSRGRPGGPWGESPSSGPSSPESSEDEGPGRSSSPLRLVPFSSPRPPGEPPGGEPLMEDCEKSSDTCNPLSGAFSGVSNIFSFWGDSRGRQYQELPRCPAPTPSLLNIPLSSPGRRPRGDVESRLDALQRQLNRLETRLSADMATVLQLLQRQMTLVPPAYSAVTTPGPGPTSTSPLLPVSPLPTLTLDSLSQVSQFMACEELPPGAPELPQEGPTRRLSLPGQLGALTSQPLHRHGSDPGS
row,Structure (SMILES),"hERG current change (%, negative = inhibition) at 1uM [%]"
1,CN=C1SC(CC(=O)Nc2ccccc2F)C(=O)N1C (stereo not shown),16.2
2,Cc1cc(C)cc(NS(=O)(=O)c2ccc(F)cc2)c1,8.52
3,Cc1nn(Cc2c(Cl)cccc2Cl)c(C)c1NC(=O)c1cc(C(C)C)on1,13.4
4,Cc1c([N+](=O)[O-])c([N+](=O)[O-])nn1CC(=O)NCCc1ccccc1,21.1
5,CCOC(=O)c1[nH]c2ccccc2c1NC(=O)c1ccco1,7.86
6,CCCCOCCOCCOCCCC,8.37
7,CC(C)C(=O)N1N=C(c2ccc(NS(C)(=O)=O)cc2)CC1c1cccs1 (stereo not shown),-24.6
8,CCNC(=O)c1ccc(NC(=O)CC2SC(N3CCCC3)=NC2=O)cc1 (stereo not shown),22.7
9,CC(C)Oc1ccc(CC2(CCc3ccncc3)C(=O)NC(=O)NC2=O)cc1,12.1
10,CCn1c(=O)c(=O)[nH]c2cc(C(=O)N3CCN(Cc4ccc5c(c4)OCO5)CC3)ccc21,7.63
11,Cc1ccc(Nc2nc(N)c3ccccc3n2)cc1C.Cl,9.42
12,COc1ccc(-c2cn[nH]c2-c2ccc(OCC(=O)NN)cc2O)cc1,12.9
13,CCCOc1ccc(CNC(=O)C2CCN(c3nn4c(=O)cc(C)nc4s3)CC2)cc1,6.43
14,O=C(Nc1ccc(Br)cc1)c1cccc(S(=O)(=O)Nc2ccccn2)c1,16.9
15,O=C(CC(Nc1cccc(Cl)c1Cl)C(=O)OCC(=O)c1cccs1)c1ccccc1 (stereo not shown),7.37
16,Cc1ccc(S(=O)(=O)N(C)Cc2cc3ccccc3[nH]c2=O)cc1,-14.8
17,CC(C)(C)c1ccc(C(=O)NC(=S)NCc2ccco2)cc1,12
18,O=C(NCc1ccc(-c2csnn2)cc1)C1CC1,10.1
19,COc1ccc(CCNC(=O)CCn2c(=O)c3cccn3c3cccnc32)cc1OC,-0.859
20,CNC(=O)c1nnc(Cc2ccc(Cl)cc2)o1,9.49

row,Structure (SMILES),"hERG current change (%, negative = inhibition) at 1uM [%]"
1,CSc1ccccc1C(=O)Nc1cc([N+](=O)[O-])ccc1C,2.38
2,CSc1ccc(/C=N\NC(=O)COc2ccc(Cl)cc2Br)cc1,7.48
3,CCc1ccccc1NC(=O)c1cc(-c2ccc(OC)cc2)on1,14.3
4,COc1ccc(CNC(=O)Nc2ccc3c(c2)N(C)C(=O)CS3)cc1,8.56
5,COc1c(C(=O)Nc2nccs2)ccc2ccccc12,12.6
6,COc1ccc(-c2csc(NC(=O)C(CC(=O)O)N3CCOCC3)n2)cc1 (stereo not shown),11.4
7,CCC1Oc2ccc(C)cc2N(CC(=O)NCc2cccs2)C1=O (stereo not shown),3.74
8,CC(=O)c1cc(-c2ccccc2)[nH]c1N1CCCC1,6.44
9,O=C(Oc1ccc(-c2ccccc2)cc1)N1CCCCC1,2.42
10,COC(=O)C1=C(c2ccc3ccccc3c2)C[C@@H]2CC[C@H]1N2C(=O)NCc1ccc(C(F)(F)F)cc1,12.3
11,COc1cc(CC2COC(=O)C2(O)Cc2ccc(O)c(OC)c2)ccc1O (stereo not shown),6.78
12,C/C(=N\Nc1cc(Cl)nc(C)n1)c1ccc(Cl)c(Cl)c1,6.97
13,O=c1c(Br)c(N2CCCC2)cnn1-c1ccccc1,11.9
14,O=C(CSc1ccc(-c2cccs2)nn1)NCc1ccccc1Cl,7.81
15,COC(=O)C1=NNC2C(=O)N(c3ccc(C)cc3)C(=O)C12 (stereo not shown),8.89
16,COc1cc2cc(CN(CCCO)S(=O)(=O)c3ccccc3)c(=O)[nH]c2cc1OC,5.47
17,Cc1ccccc1NC1=NC(=S)N(c2ccccc2)C12CCCCC2,15.1
18,O=C(O)c1ccc(/C=N/Nc2ccc(F)cc2F)cc1,14.4
19,Cc1ccc(N2C(=O)NC(NS(=O)(=O)c3ccccc3)(C(F)(F)F)C2=O)cc1 (stereo not shown),11.6
20,Cc1ccc(C(=O)Nc2cccc(C(O)c3ccccc3)c2)cc1 (stereo not shown),2.72

row,Structure (SMILES),"hERG current change (%, negative = inhibition) at 1uM [%]"
1,O=C(c1ccco1)N(CCC(c1ccccc1)c1ccco1)Cc1ccco1 (stereo not shown),10.6
2,CCOc1ccc(NC(=O)CSc2nnnn2CC(=O)O)cc1,14.5
3,C(=N\Nc1ccccn1)/c1c[nH]c2ccccc12,11.7
4,CC(C)NC(=S)Nc1cccc2cnccc12,6.24
5,CN1C(=O)Cc2cc(S(=O)(=O)N3CCN(c4ccccc4F)CC3)ccc21,0.287
6,Cn1c(O)c(C=NCCc2c[nH]c3ccccc23)c(=O)n(C)c1=O,10.4
7,COc1cccc(/C=C/C(=O)OCC(=O)NC(=O)NC2CCCCC2)c1,2
8,Cc1ccc(S(=O)(=O)N2CCCc3ccccc32)cc1C,12.5
9,CC(C)(C)CC(=O)Nc1ccc(Nc2ccccc2)cc1,12.9
10,CC(=NCCN1CCCCC1)c1c(O)n(-c2ccc(Cl)cc2)c(=O)[nH]c1=O,3.4
11,CC(=O)c1cccc(N=Cc2c(O)c3ccccc3oc2=O)c1,15.2
12,c1nnc(NC2=NCCCCC2)s1,12.4
13,COC(=O)c1ccc(Cn2nnc3c(=O)[nH]c(C4CCCN(S(=O)(=O)c5ccc(C)cc5)C4)nc32)cc1 (stereo not shown),14.5
14,CCOc1cc(/C=C2\N=C(C)OC2=O)cc(Br)c1OCCc1ccccc1,15.4
15,CCOCCCNC(=O)C1CCC(CNS(=O)(=O)c2ccc(OC)cc2)CC1 (stereo not shown),13.2
16,COc1cc(N)c(Cl)cc1C(=O)NC1CN2CCC1CC2.Cl.O (stereo not shown),1.36
17,O=C(NCc1ccccc1F)C1CCCN1S(=O)(=O)c1ccc(F)cc1 (stereo not shown),18.1
18,COc1ccc(C(=O)c2c3ccc([N+](=O)[O-])cc3[n+]([O-])n2CCC[NH3+])cc1.[Cl-],-13.5
